This is one part of the list. At the low end of the ranking, values are background and their order means little.
Each sequence was assayed against SIX1-Q177R homeodomain (UniProt Q15475) (assay: universal protein binding microarray). Settings: Universal all-10-mer PBM (8x60K, AMADID 030236), 300 nM GST-tagged protein, Alexa Fluor 488 anti-GST; buffer, salt, pH and temperature not stated; high values mean tight binding; most listed sequences are background and not binding sites; double strand, one strand shown.

| Sequence | binding signal [E-score] |
| --- | --- |
| CGTTCACC | -0.137 |
| AATATATG | 0.0814 |
| GGGCGAAA | -0.146 |
| ACGCTAGC | -0.052 |
| AACACCTC | 0.456 |
| ATCTGCTG | -0.284 |
| CGACTGGA | 0.0117 |
| CCGAGAAA | -0.127 |
| ATCGTCCA | -0.114 |
| AGTATCTA | 0.0927 |
| GCTCTTCC | 0.0751 |
| ATGAGTTC | -0.213 |
| CGGAGGGA | 0.0529 |
| ATGTCTGC | -0.152 |
| AAATCTAT | -0.219 |
| TAGAGAGA | -0.181 |
| CATGAAGC | -0.121 |
| CATCTTCC | -0.077 |
| CATAACTC | 0.116 |
| TAATGTGA | -0.0343 |
| ACGGGATA | 0.0464 |
| AAACCGGG | -0.0346 |
| GGAGGAAC | -0.156 |
| AAACGACC | -0.179 |

| Sequence | binding signal [E-score] |
| --- | --- |
| CAACCGCA | 0.0146 |
| TCTTCTAA | 0.0555 |
| CCACTGGG | -0.0414 |
| GGGAGCGA | 0.0375 |
| AGTCTCAA | -0.0788 |
| CCTAGAAG | -0.128 |
| AAAACCCC | 0.135 |
| GCTATAGA | -0.117 |
| ACGGCGAC | -0.013 |
| ACCAGCGC | -0.0638 |
| AGCTAGAG | -0.215 |
| AGGGCTAT | 0.0605 |
| ACAACCTA | 0.0255 |
| ACGGGCCC | -0.0988 |
| GTAGGGTA | 0.193 |
| GGAGTTAC | 0.131 |
| CTCCGTCA | -0.0678 |
| GTCTATCA | -0.0433 |
| CCTACTAG | -0.00787 |
| AGGTCTCA | -0.0169 |
| GGGGCTCA | -0.0282 |
| CACGAGAG | 0.128 |
| AACGCGTT | -0.0855 |
| ATGTATTG | -0.15 |

| Sequence | binding signal [E-score] |
| --- | --- |
| ACGTTTAT | -0.233 |
| CGTCAAAG | -0.141 |
| AACCGTGG | -0.12 |
| CCCAATGC | -0.174 |
| GTCGGAAC | -0.0223 |
| ACTTATAC | -0.0896 |
| ACAGTATA | 0.0566 |
| ACCTGAAG | -0.0528 |
| ATGCGGAA | -0.0624 |
| AGCTATGA | -0.0498 |
| CCTGTCAC | 0.0707 |
| CCTGTTAC | 0.0701 |
| CAACATTC | -0.0808 |
| GGTCTCGA | -0.0221 |
| AACTAGAT | -0.0303 |
| TCTCGCCA | -0.145 |
| AATAGGTA | 0.00382 |
| ACGGATCA | 0.172 |
| CATTAACG | 0.122 |
| AACCGACC | 0.0154 |
| CAACAGAC | -0.142 |
| GATCGAAC | -0.0707 |
| CCCAGATC | 0.0955 |
| GATTCAGA | -0.147 |

| Sequence | binding signal [E-score] |
| --- | --- |
| TACGTTGA | 0.0732 |
| CCTAAAAG | -0.0547 |
| AATCCCAG | 0.019 |
| AGCCACGG | -0.0128 |
| AATCGGAA | -0.00594 |
| GAGCGGCC | -0.0204 |
| GTGACGGA | -0.0818 |
| ATGTCAGC | -0.0913 |
| CGGATAAA | 0.211 |
| GCTAACAA | -0.315 |
| TGTCGTAA | 0.163 |
| CCTCTACC | 0.0962 |
| AATTGTCT | -0.0675 |
| ACGCGATC | 0.0255 |
| TATACGAA | -0.0279 |
| GTTCAGAA | 0.18 |
| TCTCTTCA | -0.256 |
| ATTTCTAG | -0.0981 |
| CTATATTA | -0.0984 |
| GACATGGC | -0.0631 |
| CTTGACAA | 0.0917 |
| CCTTTGAA | -0.154 |
